# PubChem BioAssay AID485294 (National Center for Advancing Translational Sciences (NCATS), 2010)
# Screen size: about 370,000 compounds; about 150 (0.041%) were called active. Inconclusive means that the source gave no clear call. Such entries were picked first, then a sample of the others. Calls follow the shape of the dose curve; as a rule, active = well fitted inhibition curve with a large enough effect; inconclusive = small, poorly fitted or top-dose-only effect; inactive = flat fitted curve, though single readings scatter. No potency is given beside an inconclusive call; the fits are too rough.
# Molecular target: Beta-lactamase (Escherichia coli (strain K12)) (UniProt P00811)
# Experiment: qHTS Inhibitors of AmpC Beta-Lactamase (assay with detergent); also: nearly all actives have a fitted effect of over 25% in size;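 as to activity change, negative = inhibition: 0% = no-compound wells and -100% = no-enzyme wells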
# Details: AmpC hydrolysis of nitrocefin, absorbance 480 nm, 0.01% Triton; activity change, negative = inhibition: at 114 µM (top of the series)
# Procedure, shortened: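 20 mM phosphate pH 7.0 + 0.01% (detergent screen) or 0.0001% Triton X-100; 5.3 nM AmpC reagent; cpd preinc 15 min RT; nitrocefin (800 uM stock) to start; A480 q20 s × 4 min; Activity was normalised to no-enzyme and no-compound control wells.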
# Potency is read from the fitted curve at half-maximal effect; tags tell the direction and shape of the fitted curve.
# Chain of UniProt P00811 (P00811 whole entry, looked up): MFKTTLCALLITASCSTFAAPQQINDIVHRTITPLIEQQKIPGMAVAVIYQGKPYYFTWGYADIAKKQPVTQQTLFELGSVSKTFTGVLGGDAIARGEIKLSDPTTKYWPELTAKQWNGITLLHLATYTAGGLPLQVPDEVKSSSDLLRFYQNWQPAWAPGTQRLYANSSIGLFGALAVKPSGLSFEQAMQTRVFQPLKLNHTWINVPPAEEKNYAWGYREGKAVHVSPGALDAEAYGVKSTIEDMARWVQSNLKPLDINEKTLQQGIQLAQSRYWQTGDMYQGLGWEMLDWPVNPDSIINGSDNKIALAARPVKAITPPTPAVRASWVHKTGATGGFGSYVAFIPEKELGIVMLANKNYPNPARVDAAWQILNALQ
SMILES,"activity change, negative = inhibition",Potency
COc1ccc(OC)c(NC(=O)CSc2ccc(-c3cccs3)nn2)c1,inactive: 11.1%,
CN1Cc2cc(C(=O)c3cc(Cl)cc(CSc4ncccn4)c3O)cnc2NC1=O,,"inconclusive [inhibitor, single point]"
CCOC(=O)CN1C(=O)C(Sc2n[nH]c(-c3ccccc3)n2)CCc2ccccc21 (stereo not drawn),,"inconclusive [inhibitor, partial curve, poor fit]"
CC1CCCCN1C(=O)c1cc(F)c(F)cc1Cl (stereo not drawn),,"inconclusive [inhibitor, single point]"
CCN(CC)CCn1c(SCC(=O)Nc2ccc(F)cc2)nc2c(sc3ccccc32)c1=O,,"inconclusive [inhibitor, single point]"
O=[N+]([O-])c1ccc(N2CCOCC2)cc1O,inactive: 10.9%,
c1ccc(C2=Nn3c(nnc3-c3cccnc3)SC2)cc1,,"inconclusive [inhibitor, partial curve, poor fit]"
COC(=O)c1ccc(C2/C(=C(/O)c3ccc4c(c3)CC(C)O4)C(=O)C(=O)N2Cc2cccnc2)cc1 (stereo not drawn),,"inconclusive [inhibitor, partial curve, poor fit]"
CCc1ccc(NC(=O)c2ccc(CN3CC(=O)N4CCCCC4C3=O)cc2)cc1 (stereo not drawn),inactive: 1.76%,
CN(CC(=O)Nc1ccc(F)cc1)CC(=O)N1CCc2ccccc21,,"inconclusive [inhibitor, single point]"
Cc1ccc(CCN2C(=O)c3ccccc3C2C(=O)NCc2cccnc2)cc1 (stereo not drawn),,"inconclusive [inhibitor, full curve, poor fit]"
C/C(=N\NC(=O)c1csc(C)c1C)c1ccco1,,"inconclusive [inhibitor, full curve, poor fit]"
CC(C)CNC(=O)[C@H](Cc1ccccc1)NC(=O)c1cccs1,,"inconclusive [inhibitor, full curve]"
CC1CCC(NC(=O)c2ccc3nc[nH]c3c2)CC1 (stereo not drawn),inactive: -0.058%,
Cc1ccc(SCCNC(=O)c2ccc(C)c(S(=O)(=O)Nc3cccc(C)c3)c2)cc1,inactive: 1.17%,
CCOc1cccc(-c2nnc3sc(COc4ccc(C)cc4)nn23)c1,,"inconclusive [inhibitor, full curve, poor fit]"
O=C(Nc1cccc(Cl)c1)C1C2CCC3C(CCC21)C3(Cl)Cl (stereo not drawn),,"inconclusive [inhibitor, partial curve]"
NC(=O)c1nn2c(C(F)(F)F)cc(-c3ccccc3)nc2c1Br,,"inconclusive [inhibitor, partial curve]"
CNC(=O)c1c(N)sc2c1CCCCC2,,"inconclusive [inhibitor, full curve, poor fit]"
O=C(NCC(c1ccco1)N1CCN(c2ccc(F)cc2)CC1)C1CCCCC1 (stereo not drawn),,"inconclusive [inhibitor, full curve, poor fit]"
Cn1c(=O)oc2cc(S(=O)(=O)N3CCN(c4ccccc4)CC3)ccc21,,"inconclusive [inhibitor, single point]"

SMILES,"activity change, negative = inhibition",Potency
Cc1ncsc1C(=O)N1N=C2/C(=C/c3ccc(N4CCOCC4)cc3)CCCC2C1c1ccc(N2CCOCC2)cc1 (stereo not drawn),inactive: -0.911%,
CCOC(=O)C1=NN(c2ccccc2C)C2=NC(C)=C(C(=O)OC)C(c3cccs3)N12 (stereo not drawn),,"inconclusive [inhibitor, full curve, poor fit]"
COc1ccc(NC(=O)O/N=C2/CCCc3ccc(OC)cc32)cc1,inactive: 5.98%,
COc1ccc(C(=O)CSC2=C(C#N)C3(CCCCC3)C(C#N)=C(N)N2)cc1,,"inconclusive [inhibitor, full curve]"
O=C(NC1CCCCC1)C1CN(S(=O)(=O)c2ccccc2)CCN1S(=O)(=O)c1ccccc1 (stereo not drawn),,"inconclusive [inhibitor, partial curve, poor fit]"
COc1ccc(OC)c(Nc2ncnc3ccccc23)c1,,"inconclusive [inhibitor, partial curve, poor fit]"
COc1ccc(-c2cc(C(=O)N/N=C/c3ccc(OC)c(COCC(F)(F)C(F)F)c3)c3ccccc3n2)c(OC)c1,,"inconclusive [inhibitor, full curve, poor fit]"
O=C(CN1C(=O)NC2(CCCCC2)C1=O)N1CCN(S(=O)(=O)c2cccc([N+](=O)[O-])c2)CC1,,"inconclusive [inhibitor, full curve, poor fit]"
NC(=O)N/N=C\c1cc(Br)ccc1O,inactive: -6.36%,
O=C(NCC1CCCO1)c1cc(Br)c(Br)s1 (stereo not drawn),,"inconclusive [inhibitor, partial curve, poor fit]"
CCCNC(=O)CN1C(=O)NC(CC)(c2ccc(F)cc2)C1=O (stereo not drawn),,"inconclusive [inhibitor, partial curve, poor fit]"
Fc1ccc(Nc2ccc3ccccc3n2)c(F)c1,inactive: 2.53%,
O=C(NCCc1ccccc1)C1CCN(C(=O)c2ccc([N+](=O)[O-])cc2)CC1,,"inconclusive [inhibitor, single point]"
CN(C)CCN1C(=O)c2oc3ccc(Cl)cc3c(=O)c2C1c1cccc(Br)c1 (stereo not drawn),,"inconclusive [inhibitor, partial curve, poor fit]"
O=C(Oc1ccc(N(C(=O)c2ccncc2)S(=O)(=O)c2ccc(Cl)cc2)cc1)c1ccncc1,inactive: 0.479%,
CCOC(=O)N1CCN(Cc2nc3c(c(=O)n(C)c(=O)n3C)n2Cc2cccc3ccccc23)CC1,,"inconclusive [inhibitor, full curve, poor fit]"
CCc1cccc2sc(N3CCN(C(=O)c4ccc([N+](=O)[O-])o4)CC3)nc12,,"inconclusive [inhibitor, full curve, poor fit]"
COc1ccc(Cl)c2sc(N3CCN(C(=O)C4=COCCO4)CC3)nc12,,"inconclusive [inhibitor, partial curve, poor fit]"
CN(CC(=O)NCCCN1CCOCC1)S(=O)(=O)c1ccc(Br)cc1,,"inconclusive [inhibitor, full curve, poor fit]"
O=C(NCc1ccc(Cl)cc1)c1cnc2sc(N3CCOCC3)nn2c1=O,inactive: 1.92%,
CCOc1ccc(NC(=O)C(=O)NCCN2CCN(S(=O)(=O)c3ccc(C)cc3)CC2)cc1,,"inconclusive [inhibitor, single point]"

SMILES,"activity change, negative = inhibition",Potency
O=C(C[n+]1cc(-c2ccc(Cl)cc2)n2c1CCC2)N1c2ccccc2Sc2ccccc21,,"inconclusive [inhibitor, full curve]"
CN(Cc1ccc(Cl)cc1Cl)C(=O)CNC(=O)c1ccc2c(c1)OCO2,,"inconclusive [inhibitor, partial curve, poor fit]"
Cn1nc(-c2ccccc2)cc1NS(=O)(=O)c1ccc(C#N)cc1,inactive: -7.07%,
COc1ccc(C2(CNC(=O)c3ccc(C)cc3)CCOCC2)cc1,inactive: -5.5%,
CC1(C)C2([N+](=O)[O-])CNCC1([N+](=O)[O-])CNC2,,"inconclusive [inhibitor, full curve, poor fit]"
CCCCN(CC)CCCNC(=O)CS(=O)(=O)Cc1nc(-c2ccc(C)cc2)oc1C,inactive: 16.1%,
O=C(O)c1cc(S(=O)(=O)N2CC=C(c3ccccc3)CC2)ccc1O,,"inconclusive [inhibitor, partial curve, poor fit]"
Cc1ccc(OCC(=O)Nc2ccccc2C(=O)NC2CC2)cc1C,,"inconclusive [inhibitor, partial curve]"
Cc1ccc(S(=O)(=O)NCC(C)NS(=O)(=O)c2ccccc2[N+](=O)[O-])cc1 (stereo not drawn),,"inconclusive [inhibitor, partial curve, poor fit]"
COc1cc([C@@H]2CC=C(C(=O)O)[C@H](c3ccccc3)N2S(=O)(=O)c2ccc(C)cc2)cc(OC)c1OC,,"inconclusive [inhibitor, partial curve]"
CC1CCN(Cc2c(O)ccc3c(=O)c(Oc4ccccc4Cl)c(C(F)(F)F)oc23)CC1,inactive: 18.5%,
O=C(NCc1cccnc1)c1noc2c1CCCCC2,,"inconclusive [inhibitor, full curve]"
CC(C)OC(=O)c1ccc(NC(=O)c2ccccc2)cc1,,"inconclusive [inhibitor, full curve]"
COc1ccc(NS(=O)(=O)c2ccc3oc(=S)[nH]c3c2)cc1,,"inconclusive [inhibitor, full curve, poor fit]"
c1ccc(CSc2nnc(Cc3ccccn3)o2)cc1,,"inconclusive [inhibitor, full curve, poor fit]"
COc1ccc(S(=O)(=O)NCC(c2ccco2)S(=O)(=O)c2ccc(C)cc2)cc1F (stereo not drawn),inactive: 2.67%,
O=C(CCC(F)(F)F)N1CCCC(CO)(CCc2ccccc2)C1 (stereo not drawn),,"inconclusive [inhibitor, full curve]"
C=CCn1c(C)cc(C(=O)Cn2ncc(Cl)c(Cl)c2=O)c1C,,"inconclusive [inhibitor, partial curve, poor fit]"
CC(C)CNC(=O)C(=O)NN=C1CCCCCC1,,"inconclusive [inhibitor, full curve, poor fit]"
CCN(c1ccccc1)S(=O)(=O)c1ccc(Cl)c(NC(=O)COC(=O)c2ccc(Cl)c(N)c2)c1,,"inconclusive [inhibitor, partial curve, poor fit]"
CCN1CCN(c2ccc(N3CCN(S(=O)(=O)c4cc([N+](=O)[O-])ccc4C)CC3)nn2)CC1,,"inconclusive [inhibitor, full curve, poor fit]"
